Measurements as given in PubChem BioAssay AID588795 (National Center for Advancing Translational Sciences (NCATS), 2011).
Several values for one entry are separate records, joined by “and”; a condition that tells them apart may be missing. Equal entries are not always repeated. Hit rate of the full screen: of about 390,000 compounds, about 1,400 (0.36%) were called active. The shares of active, inactive and inconclusive entries below differ from those in the screen. Calls follow the shape of the dose curve; as a rule, active = well fitted inhibition curve with a large enough effect; inconclusive = small, poorly fitted or top-dose-only effect; inactive = no such curve, though single readings can be large or run the other way. A potency beside an inconclusive call is a rough fit, not a confirmed value.
% is scaled to controls: 0 for no effect and ±100 for the full control effect; potency is read from the fitted curve at half-maximal effect; tags tell the direction and shape of the fitted curve.
Also: nearly all actives have a fitted effect of over 65% in size.

What follows are compounds tested against Flap endonuclease 1 (Homo sapiens) (UniProt P39748) (assay: qHTS Assay for the Inhibitors of Human Flap endonuclease 1 (FEN1).). Details: Recombinant FEN1 flap cleavage, fluorescence, 15 min; series mostly up to 114 µM; activity change, negative = inhibition: at the top concentration.
Chain of UniProt P39748 (P39748 whole entry, looked up): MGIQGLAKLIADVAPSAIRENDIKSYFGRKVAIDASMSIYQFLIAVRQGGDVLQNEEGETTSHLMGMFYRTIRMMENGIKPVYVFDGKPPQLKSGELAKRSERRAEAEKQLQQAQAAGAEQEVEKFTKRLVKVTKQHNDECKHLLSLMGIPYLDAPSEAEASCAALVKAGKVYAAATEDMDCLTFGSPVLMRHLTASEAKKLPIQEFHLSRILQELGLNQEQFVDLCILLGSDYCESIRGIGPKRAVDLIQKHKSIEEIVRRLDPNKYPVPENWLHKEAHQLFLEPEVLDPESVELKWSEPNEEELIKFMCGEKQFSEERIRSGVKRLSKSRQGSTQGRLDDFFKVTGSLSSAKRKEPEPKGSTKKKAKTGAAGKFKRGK
Summary of the method: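 Compounds are tested as a concentration series against 10 nM FEN1; after a 15 min room-temperature preincubation, 50 nM substrate starts cleavage, with plate reads at 0 and 15 min. Normalized responses are fitted by a Hill equation.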
In the case of Cc1cc(NC(=O)Cc2cccs2)no1, the Potency is reported as active: 56.2 µM.
In the case of CCOc1ccc(CNC(=O)c2c(C)nn(-c3ccc(F)cc3)c2-n2cccc2)cc1, the “activity change, negative = inhibition” value is reported as inactive: 7.4%.
In the case of CCOc1ccc(/C=N/NC(=O)Cc2csc(Nc3cccc(C(F)(F)F)c3)n2)c(OCC)c1, the Potency is reported as inconclusive: 35.5 µM [inhibitor, partial curve, poor fit].
With CC1(C)C(=O)Nc2ccccc2N1C(=O)COC(=O)CCSc1ccccc1 the “activity change, negative = inhibition” value was inactive: -12%.
For Cc1cccc(C)c1NC(=O)CS(=O)CC(=O)NCCCc1ccccc1 (configuration not stated), the Potency was inconclusive: 0.158 µM [inhibitor, full curve].
For CCOC(=O)c1c(NC(=O)COC(=O)CNC(=O)c2ccco2)sc(C(C)=O)c1C, the Potency was inconclusive: 79.4 µM [inhibitor, partial curve, poor fit].
CCCN1C(=O)/C(=C/c2ccc(N3CCCC3)c(C)c2)NC1=S was tested, and the Potency was inconclusive: 56.2 µM [inhibitor, partial curve, poor fit].
Oc1c(I)cc(Cl)c2cccnc12 was tested, and the Potency was inconclusive: 35.5 µM [inhibitor, full curve] and inconclusive: 22.4 µM [inhibitor, partial curve, poor fit].
In the case of Cc1ccc(C2(c3ccccc3)NC(=O)N(CC(=O)N3CC(=O)Nc4ccccc43)C2=O)cc1C (configuration not stated), the Potency is reported as inconclusive: 79.4 µM [inhibitor, partial curve, poor fit].
In the case of COc1ccc(CCNC(=O)c2cc(-c3ccccc3)nc3ccccc23)cc1OC, the Potency is reported as inconclusive: 50.1 µM [inhibitor, partial curve, poor fit].
O=c1c(-c2ccco2)[n+]([O-])c2ccccc2n1OCc1ccccc1 was tested, and the Potency was inconclusive: 35.5 µM [inhibitor, partial curve].
With CCOc1ccccc1OC(=O)c1cc2ccccc2oc1=O the “activity change, negative = inhibition” value was inactive: -2.88%.
With O=Cc1ccc2oc3nc4n(c(=O)c3c(=O)c2c1)CCCS4 the Potency was active: 50.1 µM.
O=C1[C@H](Cc2ccccc2)NCC=CC[C@@H](c2ccc(Cl)cc2)N1Cc1ccccc1 was tested, and the Potency was inconclusive: 89.1 µM [inhibitor, partial curve, poor fit].
CC(=O)Nc1ccc(C=NNc2nnc(NN=Cc3ccc(NC(C)=O)cc3)c3ccccc23)cc1 was tested, and the Potency was inconclusive: 15.8 µM [inhibitor, partial curve, poor fit].
For Cc1ccc(CN(C)C(=O)c2cc(COc3cccc(C(F)(F)F)c3)on2)o1, the Potency was inconclusive: 50.1 µM [inhibitor, partial curve, poor fit].
In the case of CCCC1=Nc2cc(C(=O)NC(C)c3ccccc3)ccc2Sc2ccc(C)cc21 (configuration not stated), the Potency is reported as inconclusive: 89.1 µM [inhibitor, single point].
CN(C)S(=O)(=O)c1cccc(NC(=O)COC(=O)c2ccc(Br)o2)c1 was tested, and the Potency was inconclusive: 89.1 µM [inhibitor, single point].
In the case of COc1ccc(/C=C2\C(=O)ON=C2c2ccccc2)cc1, the “activity change, negative = inhibition” value is reported as inactive: -9.53%.
With Cc1cc(C)c(OCCNC(=O)c2ccccc2Sc2ccccc2C#N)c(C)c1 the Potency was inconclusive: 22.4 µM [inhibitor, partial curve, poor fit].
CCN(CC)c1cc(C)c2cc(NC(=O)c3ccccc3OC)ccc2n1 was tested, and the Potency was inconclusive: 50.1 µM [inhibitor, partial curve, poor fit].
With C(=C\c1ccccc1)/CN1CCN(C(c2ccccc2)c2ccccc2)CC1 the Potency was inconclusive: 7.52 µM [inhibitor, single point].
In the case of COC/C=C/C1=CC2=CC(=O)C(C)(OC(=O)c3cnc4ccccc4n3)C(=O)C2=CN1Cc1ccco1 (configuration not stated), the Potency is reported as inconclusive: 20 µM [inhibitor, full curve].
In the case of COc1ccc(NS(=O)(=O)c2cccc(C(=O)NN=Cc3cc(Br)c(O)c(Br)c3)c2)cc1, the Potency is reported as inconclusive: 56.2 µM [inhibitor, partial curve, poor fit].
OC(COc1ccc(Cl)c2ccccc12)CN1CCN(c2ccccn2)CC1 (configuration not stated) was tested, and the Potency was inconclusive: 50.1 µM [inhibitor, partial curve, poor fit].
In the case of CC(C)Cn1c(N)c(C(=O)COC(=O)c2cc(-c3ccco3)nc3ccccc23)c(=O)n(C)c1=O, the Potency is reported as inconclusive: 56.2 µM [inhibitor, partial curve, poor fit].
C[C@@H]1CN([C@H](C)CO)C(=O)Cc2cc(NS(=O)(=O)c3ccc(Cl)cc3)ccc2O[C@H]1CN(C)Cc1ccc(C(F)(F)F)cc1 was tested, and the Potency was inconclusive: 44.7 µM [inhibitor, partial curve, poor fit].
With O=C(N/N=C/c1ccc(-c2cccc([N+](=O)[O-])c2)o1)c1ccccc1O the Potency was inconclusive: 89.1 µM [inhibitor, single point].
With CCOC(=O)C(NC(=O)CCC(=O)Nc1ccc(S(N)(=O)=O)cc1)C(O)c1ccccc1 (configuration not stated) the “activity change, negative = inhibition” value was inactive: 6.37%.
With CCOC(=O)CNS(=O)(=O)c1cc(-c2nnc(Nc3cccc(O)c3)c3ccccc23)ccc1C the Potency was inconclusive: 89.1 µM [inhibitor, partial curve, poor fit].
O=C(CSc1n[nH]c(-c2ccccc2Cl)n1)N1CCN(c2ccccc2)CC1 was tested, and the “activity change, negative = inhibition” value was inactive: 3.86%.
For Cc1nnc(-c2cccc(Br)c2)c2cn(-c3ccccc3)nc12, the Potency was inconclusive: 79.4 µM [inhibitor, partial curve, poor fit].
With OC(CN1CCCCC1)Cn1c2ccc(Cl)cc2c2cc(Cl)ccc21 (configuration not stated) the Potency was inconclusive: 89.1 µM [inhibitor, partial curve, poor fit].
For O=C(NCc1cc(C(F)(F)F)ccc1F)C1CCC(=O)N(C2CCCCCC2)C1 (configuration not stated), the “activity change, negative = inhibition” value was inactive: 22.5%.
For CCCCN([C@H](CO)C(C)C)S(=O)(=O)c1ccccc1Br, the Potency was inconclusive: 31.6 µM [inhibitor, single point].
With Cc1ccc(-n2c(O)c(C=Nc3ccccc3-c3n[nH]c(=S)[nH]c3=O)c3ccccc3c2=O)c(C)c1 the Potency was inconclusive: 89.1 µM [inhibitor, single point].
O=[N+]([O-])c1cc(-c2ccc(C(=S)N3CCOCC3)o2)ccc1Cl was tested, and the Potency was inconclusive: 79.4 µM [inhibitor, partial curve, poor fit].
In the case of CCc1ccc(OC2=NS(=O)(=O)c3ccccc32)cc1, the “activity change, negative = inhibition” value is reported as inactive: 15.6%.
CCOc1ccc(NC(=O)C2C(C(=O)O)C3(Cl)C(Cl)=C(Cl)C2(Cl)C3(Cl)Cl)cc1 (configuration not stated) was tested, and the “activity change, negative = inhibition” value was inactive: -13.6%.
With Oc1ccccc1-c1cc(-c2cccc(F)c2)n[nH]1 the Potency was inconclusive: 89.1 µM [inhibitor, partial curve, poor fit].
NS(=O)(=O)c1ccc(CCNCc2cc(Cl)ccc2OCc2ccccc2)cc1 was tested, and the Potency was inconclusive: 89.1 µM [inhibitor, partial curve, poor fit].
For CCc1ccc(NC(=O)C2CCN(S(=O)(=O)c3ccc4[nH]c5c(c4c3)CCCCC5)CC2)cc1, the “activity change, negative = inhibition” value was inactive: -8.31%.
For CCN(C(=O)CSc1nnc(C)n1-c1ccccc1)C1CCS(=O)(=O)C1 (configuration not stated), the “activity change, negative = inhibition” value was inactive: -1.05%.
With COc1ccccc1NS(=O)(=O)c1ccc(C(=O)OCC(=O)NCc2ccco2)cc1 the “activity change, negative = inhibition” value was inactive: -4%.
For COc1ccc2oc(C(=O)Nc3ccccc3N3CCOCC3)c(C)c2c1, the “activity change, negative = inhibition” value was inactive: -8.42%.
In the case of C=CCn1c(=N)c(C(=O)NCCCOC)cc2c(=O)n3cccc(C)c3nc21, the “activity change, negative = inhibition” value is reported as inactive: -10.7%.
In the case of N#Cc1cccc(NC(=O)CSc2ccc3c4c(cccc24)C(=O)c2ccccc2-3)c1, the Potency is reported as inconclusive: 56.2 µM [inhibitor, partial curve, poor fit].
With Cc1ccc(S(=O)(=O)NCC(c2ccc(N(C)C)cc2)N2CCOCC2)cc1 (configuration not stated) the Potency was inconclusive: 79.4 µM [inhibitor, partial curve, poor fit].
For CC(C)(C)c1ccc(-c2nc(C#N)c(NCc3cccnc3)o2)cc1, the Potency was inconclusive: 89.1 µM [inhibitor, partial curve, poor fit].
O=[N+]([O-])c1ccc(/C=N/Nc2ccnc3cc(Cl)ccc23)o1 was tested, and the Potency was inconclusive: 89.1 µM [inhibitor, single point].
In the case of C[n+]1ccnc2cc(Cl)ccc21, the Potency is reported as inconclusive: 17.8 µM [inhibitor, full curve, poor fit].
For COCCN(CC(=O)Nc1cccc(C)c1C)C(=O)c1cc(-c2cccs2)nn1-c1ccccc1, the Potency was inconclusive: 79.4 µM [inhibitor, partial curve, poor fit].
In the case of CCN1CCN(c2oc(/C=C/c3ccccc3OC)nc2C#N)CC1, the Potency is reported as inconclusive: 79.4 µM [inhibitor, single point].
For COc1ccc(/C=N/NC(=O)c2ccc(CSc3nc(C)cc(C)n3)cc2)cc1O, the Potency was inconclusive: 17.8 µM [inhibitor, partial curve, poor fit].
In the case of N#Cc1ccccc1/C=N/Nc1nc(-c2ccccc2)c2cc(Br)ccc2n1, the “activity change, negative = inhibition” value is reported as inactive: -2.3%.
C/C(=N/Nc1ccnc2cc(Cl)ccc12)c1ccc(O)cc1 was tested, and the Potency was inconclusive: 79.4 µM [inhibitor, partial curve, poor fit].
For CCN1C(=NCc2cccc(Cl)c2)N[C@@H](c2cccc(C(F)(F)F)c2)C(C(=O)OC)=C1C, the “activity change, negative = inhibition” value was inactive: 2.21%.
For CC1=NN(c2ccccc2)C(=O)/C1=C\c1sccc1C, the Potency was inconclusive: 50.1 µM [inhibitor, partial curve, poor fit].
With O=C(CCl)c1cc2c3c(c1)CC(=O)N3CCC2 the “activity change, negative = inhibition” value was inactive: -3.44%.
With Cc1nn(-c2ccccc2)c(OC(=O)C(C)C)c1Sc1ccccc1 the Potency was inconclusive: 8.91 µM [inhibitor, partial curve, poor fit].
For CCOc1ccc(/C=N/NC(=O)c2cc3c(OC)cc(OC)c(OC)c3[nH]2)cc1, the Potency was inconclusive: 15.8 µM [inhibitor, partial curve, poor fit].
In the case of Cc1ccc(Cl)cc1NC(=O)C(C)n1nnc2sc(-c3ccccc3)cc2c1=O (configuration not stated), the Potency is reported as inconclusive: 89.1 µM [inhibitor, single point].
